Several values for one entry are separate records, joined by “and”; a condition that tells them apart may be missing. Equal values may be shown once. The shares of active, inactive and inconclusive entries below differ from those in the screen. For some assays here: Where the call is inconclusive, the potency comes from a doubtful curve fit. Activity calls are given as the source filed them. The call rests on the fitted dose curve; in most records, active means well fitted curve in the direction sought with a large enough effect; inconclusive means small, poorly fitted or top-dose-only effect, or another doubt; inactive means no such curve, though single readings can be large; an effect the other way counts as inactive or inconclusive.
Columns and labels:
HEK293 = test: Cytotoxic Profiling of Annotated Libraries Using Quantitative High-Throughput Screening (AID 1296008); details: Five cell lines viability, CellTiter-Glo ATP luminescence, 48-72 h; max response: hits give low values; further: nearly all actives have a fitted effect of over 60% in size
Method in brief: (§1)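 Cytotoxicity was measured as CellTiter-Glo ATP luminescence, read after 10 min at room temperature. Compound treatment of the cells lasted 48 or 72 hr at 37 degrees Celsius in a qHTS format.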

KB-3-1 = test: as above; details: Five cell lines viability, CellTiter-Glo ATP luminescence, 48-72 h; max response: hits give low values
Method in brief: as §1

HaCat = test: as above; details: Five cell lines viability, CellTiter-Glo ATP luminescence, 48-72 h; max response: hits give low values
Method in brief: as §1

NIH3T3 = test: as above; details: Five cell lines viability, CellTiter-Glo ATP luminescence, 48-72 h; max response: hits give low values
Method in brief: as §1

MKL-2 = test: qHTS assay to identify novel small-molecules to repurpose for Merkel cell carcinoma treatment (AID 1296009); details: MCC and control cell lines, CellTiter-Glo viability, 72 h; activity change, negative = cytotoxicity: at 46 µM (top of the series); further: nearly all actives have a fitted effect of over 60% in size
Method in brief: (§2)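 Cell viability measured by CellTiter-Glo following 72 hr compound treatment at 37 degree celsius, with NPC and MIPE libraries tested in 8- and 11-point concentration series.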

UISO = test: as above; details: MCC and control cell lines, CellTiter-Glo viability, 72 h; series mostly up to 46 µM
Method in brief: as §2

CAOV3 = test: Primary qHTS to identify gynecologic anti-cancer compounds using libraries of approved drugs and bioactive compounds (AID 1345084); details: Gynecologic cancer cell panel viability, ATPlite luminescence, 48 h; series mostly up to 57.5 µM; further: nearly all actives have a fitted effect of over 55% in size
Method in brief: (§3)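 Five-concentration response, 48 h; readout is ATP-driven luciferase luminescence.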

CASKI = test: as above; details: Gynecologic cancer cell panel viability, ATPlite luminescence, 48 h; series mostly up to 57.5 µM
Method in brief: as §3

OV90 = test: as above; details: Gynecologic cancer cell panel viability, ATPlite luminescence, 48 h; series mostly up to 57.5 µM
Method in brief: as §3

PA-1 = test: as above; details: Gynecologic cancer cell panel viability, ATPlite luminescence, 48 h; series mostly up to 57.5 µM
Method in brief: as §3

SKOV3 = test: as above; details: Gynecologic cancer cell panel viability, ATPlite luminescence, 48 h; series mostly up to 57.5 µM
Method in brief: as §3

WaGa = test: qHTS assay to identify novel small-molecules to repurpose for Merkel cell carcinoma treatment (AID 1296009); details: MCC and control cell lines, CellTiter-Glo viability, 72 h; series mostly up to 46 µM; further: nearly all actives have a fitted effect of over 60% in size
Method in brief: as §2

C33A = test: Primary qHTS to identify gynecologic anti-cancer compounds using libraries of approved drugs and bioactive compounds (AID 1345084); details: Gynecologic cancer cell panel viability, ATPlite luminescence, 48 h; series mostly up to 57.5 µM; further: nearly all actives have a fitted effect of over 55% in size
Method in brief: as §3

Es-2 = test: as above; details: Gynecologic cancer cell panel viability, ATPlite luminescence, 48 h; series mostly up to 57.5 µM
Method in brief: as §3

HeLa = test: as above; details: Gynecologic cancer cell panel viability, ATPlite luminescence, 48 h; series mostly up to 57.5 µM
Method in brief: as §3

Hek293T = test: as above; details: Gynecologic cancer cell panel viability, ATPlite luminescence, 48 h, control line for the selectivity index; series mostly up to 57.5 µM
Method in brief: as §3

JEG-3 = test: as above; details: Gynecologic cancer cell panel viability, ATPlite luminescence, 48 h; series mostly up to 57.5 µM
Method in brief: as §3

MKL-1 = test: qHTS assay to identify novel small-molecules to repurpose for Merkel cell carcinoma treatment (AID 1296009); details: MCC and control cell lines, CellTiter-Glo viability, 72 h; series mostly up to 46 µM; further: nearly all actives have a fitted effect of over 60% in size
Method in brief: as §2

MCC-13 = test: as above; details: MCC and control cell lines, CellTiter-Glo viability, 72 h; series mostly up to 46 µM
Method in brief: as §2
On the % scale 0 is the no-effect control and ±100 the full control effect; potency means the concentration at half of the fitted maximal effect; tags describe the fitted curve by direction and shape.

For O=c1c(-c2ccc(O)cc2)coc2cc(OC3O[C@H](CO)[C@H](O)[C@H](O)[C@H]3O)cc(O)c12 (some centres not stated), the Potency (HEK293) was inconclusive: 20.9 µM [inhibitor, partial curve] and the Potency (KB-3-1) was inconclusive: 37.2 µM [inhibitor, single point].
With COc1cc2nc(-c3ccc(N4CCN(C)CC4)cc3)nc(NCCN3CCOCC3)c2cc1OC the Potency (HEK293) was active: 5.8 µM, the Potency (HaCat) was active: 0.935 µM and the Potency (NIH3T3) was inconclusive: 14.8 µM [inhibitor, partial curve, poor fit]. For the same compound, the Potency (MKL-2) was active: 0.105 µM, the Potency (UISO) was active: 0.118 µM and the Potency (CAOV3) was inconclusive: 39.8 µM [cytotoxic, single point]. For the same compound, the Potency (CASKI) was inconclusive: 39.8 µM [cytotoxic, single point], the Potency (OV90) was inconclusive: 20 µM [cytotoxic, partial curve, poor fit] and the Potency (PA-1) was active: 15.8 µM. For the same compound, the Potency (SKOV3) was inconclusive: 39.8 µM [cytotoxic, single point].
For NC(=O)c1cccc2[nH]c(-c3ccc([C@H]4CCCN4)cc3F)nc12, the Potency (HEK293) was inconclusive: 26.4 µM [inhibitor, single point], the Potency (HaCat) was inconclusive: 5.17 µM [inhibitor, partial curve, poor fit] and the Potency (MKL-2) was active: 2.35 µM. The Potency (UISO) was inconclusive: 16.6 µM [inhibitor, partial curve], the Potency (WaGa) was active: 20.9 µM and the Potency (C33A) was active: 17.8 µM. For the same compound, the Potency (CAOV3) was active: 28.2 µM, the Potency (CASKI) was active: 12.6 µM and the Potency (Es-2) was active: 31.6 µM. The Potency (HeLa) was inconclusive: 12.6 µM [cytotoxic, partial curve, poor fit], the Potency (Hek293T) was active: 17.8 µM and the Potency (JEG-3) was active: 14.1 µM. The Potency (OV90) was active: 14.1 µM and the Potency (SKOV3) was inconclusive: 35.5 µM [cytotoxic, single point].
For COc1ccc(C2CC(c3ccccc3)=NN2c2ccc(S(N)(=O)=O)cc2)cc1 (configuration not stated), the Potency (HEK293) was inconclusive: 29.1 µM [inhibitor, single point], the max response (HaCat) was inactive: 3.54% and inactive: 1.7% and the Potency (KB-3-1) was inconclusive: 18.4 µM [inhibitor, partial curve, poor fit]. For the same compound, the Potency (MKL-1) was “inactive” and the Potency (UISO) was inconclusive: 33.2 µM [inhibitor, partial curve, poor fit].
For Cc1c(NC(=O)c2ccc(C(C)(C)C)cc2)cccc1-c1cn(C)c(=O)c(Nc2ccc(C(=O)N3CCOCC3)cc2)n1, the Potency (HEK293) was inconclusive: 12.8 µM [inhibitor, single point], the Potency (HaCat) was inconclusive: 20.9 µM [inhibitor, partial curve] and the Potency (MCC-13) was “inactive”. The Potency (CAOV3) was “inactive”, the Potency (PA-1) was “inactive” and the Potency (SKOV3) was “inactive”.
For O=C(OCc1ccccc1)c1ccc(O)cc1, the outcome (HEK293) was “inactive”, the Potency (HaCat) was inconclusive: 1.19 µM [inhibitor, full curve, poor fit] and the Potency (WaGa) was “inactive”. For the same compound, the Potency (CAOV3) was “inactive”.
In the case of C[C@H](NC(=O)c1sccc1OCc1ccc(Cl)cc1)c1ccccc1, the Potency (HEK293) is reported as active: 16.6 µM, the Potency (HaCat) is reported as inconclusive: 20.9 µM [inhibitor, partial curve] and the Potency (KB-3-1) is reported as active: 20.9 µM. For the same compound, the activity change, negative = cytotoxicity (MKL-2) was inconclusive: -50.3% [inhibitor] and the Potency (UISO) was inconclusive: 16.6 µM [inhibitor, partial curve].
CC(O)=C(C#N)C(=O)Nc1ccc(C(F)(F)F)cc1 was tested, and the Potency (HEK293) was active: 11.8 µM, the Potency (KB-3-1) was inconclusive: 18.7 µM [inhibitor, partial curve] and the Potency (NIH3T3) was inconclusive: 37.2 µM [inhibitor, single point]. The Potency (MKL-1) was inconclusive: 33.2 µM [inhibitor, single point], the Potency (MKL-2) was inconclusive: 23.5 µM [inhibitor, single point] and the Potency (UISO) was inconclusive: 33.2 µM [inhibitor, single point].
With Cc1ccc2c(n1)Oc1ccc(C(C)C(=O)OCC(=O)N(C)C)cc1C2 (configuration not stated) the Potency (HEK293) was inconclusive: 23.7 µM [inhibitor, partial curve, poor fit], the Potency (HaCat) was inconclusive: 33.5 µM [inhibitor, partial curve, poor fit] and the Potency (HeLa) was inconclusive: 39.8 µM [cytotoxic, single point]. The Potency (OV90) was “inactive”.
With CN(C)c1ccc(Nc2nc(N)n(C(=O)c3c(F)cccc3F)n2)cc1 the Potency (HEK293) was inconclusive: 29.1 µM [inhibitor, single point], the Potency (HaCat) was inconclusive: 5.26 µM [inhibitor, partial curve, poor fit] and the Potency (KB-3-1) was inconclusive: 8.33 µM [inhibitor, full curve, poor fit]. For the same compound, the Potency (MCC-13) was inconclusive: 20.9 µM [inhibitor, single point], the Potency (WaGa) was inconclusive: 7.43 µM [inhibitor, single point] and the Potency (HeLa) was active: 12.6 µM.
